In publication PMC9663165:
These are yes or no findings as the source states them, for the method shown. Some results given as binding are weak or reduced against the parent protein; the word gives no strength. For some assays here: Tags and fused reporters may be left off the sequences shown.

Amino acid sequences for entries named in this document (tags omitted). A change or cut given only in a name is not applied to a line headed by its entry. Chains listed by the source or under a name are the forms on record and can include a tag or linker. Residues count along the entry.
full-length human p75 neurotrophin receptor fused at the cytoplasmic C-terminus to GFP (P08138, residues 29-427): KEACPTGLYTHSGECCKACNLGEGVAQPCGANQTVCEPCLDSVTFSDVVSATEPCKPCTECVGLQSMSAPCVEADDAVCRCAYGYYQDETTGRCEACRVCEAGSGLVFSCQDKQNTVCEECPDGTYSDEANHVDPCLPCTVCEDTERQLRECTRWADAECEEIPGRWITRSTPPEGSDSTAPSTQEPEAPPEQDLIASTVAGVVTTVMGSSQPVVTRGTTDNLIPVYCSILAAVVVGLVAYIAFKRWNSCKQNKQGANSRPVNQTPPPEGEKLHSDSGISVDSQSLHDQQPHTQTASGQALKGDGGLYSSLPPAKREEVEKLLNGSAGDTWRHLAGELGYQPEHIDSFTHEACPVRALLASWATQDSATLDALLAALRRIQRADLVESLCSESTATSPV
p75^NTR P150D-GFP (P08138, form named): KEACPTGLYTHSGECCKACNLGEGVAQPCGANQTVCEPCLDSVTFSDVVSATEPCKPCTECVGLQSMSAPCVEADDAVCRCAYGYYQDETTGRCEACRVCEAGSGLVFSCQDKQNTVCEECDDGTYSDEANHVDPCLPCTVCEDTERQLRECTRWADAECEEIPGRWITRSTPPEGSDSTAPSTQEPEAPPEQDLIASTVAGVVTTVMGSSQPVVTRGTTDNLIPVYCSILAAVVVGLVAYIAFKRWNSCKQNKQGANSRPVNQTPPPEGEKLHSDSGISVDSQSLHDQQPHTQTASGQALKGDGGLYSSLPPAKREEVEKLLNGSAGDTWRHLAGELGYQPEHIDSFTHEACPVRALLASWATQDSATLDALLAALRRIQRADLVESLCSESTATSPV
p75^NTR S137A-GFP (P08138, form named): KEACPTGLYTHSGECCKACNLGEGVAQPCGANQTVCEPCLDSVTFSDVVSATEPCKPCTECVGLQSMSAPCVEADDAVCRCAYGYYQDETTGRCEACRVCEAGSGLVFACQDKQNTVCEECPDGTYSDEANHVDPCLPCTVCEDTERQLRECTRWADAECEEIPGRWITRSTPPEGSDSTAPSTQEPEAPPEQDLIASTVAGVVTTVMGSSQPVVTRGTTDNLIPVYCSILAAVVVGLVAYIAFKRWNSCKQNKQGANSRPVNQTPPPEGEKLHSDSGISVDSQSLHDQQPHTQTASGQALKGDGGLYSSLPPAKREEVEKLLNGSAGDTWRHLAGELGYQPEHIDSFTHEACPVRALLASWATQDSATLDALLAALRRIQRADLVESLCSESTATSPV
p75^NTR P150A-GFP (P08138, form named): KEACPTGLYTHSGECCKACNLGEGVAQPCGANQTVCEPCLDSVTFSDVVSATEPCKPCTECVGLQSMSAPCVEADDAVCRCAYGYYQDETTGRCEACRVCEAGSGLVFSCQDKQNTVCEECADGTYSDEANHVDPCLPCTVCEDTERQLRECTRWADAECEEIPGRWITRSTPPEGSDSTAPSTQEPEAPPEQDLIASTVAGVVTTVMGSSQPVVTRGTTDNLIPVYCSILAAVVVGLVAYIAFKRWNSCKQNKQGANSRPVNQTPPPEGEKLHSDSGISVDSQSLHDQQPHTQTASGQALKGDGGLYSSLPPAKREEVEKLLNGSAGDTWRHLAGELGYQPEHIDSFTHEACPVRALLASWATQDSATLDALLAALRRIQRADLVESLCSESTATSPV
p75^NTR F136D-GFP (P08138, form named): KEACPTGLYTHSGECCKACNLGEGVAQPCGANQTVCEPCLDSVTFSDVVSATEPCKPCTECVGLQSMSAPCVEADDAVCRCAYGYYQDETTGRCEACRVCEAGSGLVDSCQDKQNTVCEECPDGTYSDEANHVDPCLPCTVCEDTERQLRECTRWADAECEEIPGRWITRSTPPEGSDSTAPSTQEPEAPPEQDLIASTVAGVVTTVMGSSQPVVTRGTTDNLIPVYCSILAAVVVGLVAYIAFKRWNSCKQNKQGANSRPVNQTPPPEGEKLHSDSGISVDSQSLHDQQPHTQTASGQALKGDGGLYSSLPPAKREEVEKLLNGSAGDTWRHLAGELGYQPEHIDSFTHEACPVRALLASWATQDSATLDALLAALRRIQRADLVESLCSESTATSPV
p75^NTR L165A-GFP (P08138, form named): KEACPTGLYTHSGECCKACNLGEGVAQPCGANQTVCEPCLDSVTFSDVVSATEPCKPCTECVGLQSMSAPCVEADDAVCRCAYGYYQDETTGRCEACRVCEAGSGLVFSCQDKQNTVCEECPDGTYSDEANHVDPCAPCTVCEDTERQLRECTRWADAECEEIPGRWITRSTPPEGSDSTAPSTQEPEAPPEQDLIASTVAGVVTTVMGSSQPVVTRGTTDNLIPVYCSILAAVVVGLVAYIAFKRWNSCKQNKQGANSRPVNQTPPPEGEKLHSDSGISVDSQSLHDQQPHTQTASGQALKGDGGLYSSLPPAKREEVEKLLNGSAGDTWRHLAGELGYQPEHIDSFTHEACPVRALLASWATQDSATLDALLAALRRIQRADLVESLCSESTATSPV
p75^NTR S137D-GFP (P08138, form named): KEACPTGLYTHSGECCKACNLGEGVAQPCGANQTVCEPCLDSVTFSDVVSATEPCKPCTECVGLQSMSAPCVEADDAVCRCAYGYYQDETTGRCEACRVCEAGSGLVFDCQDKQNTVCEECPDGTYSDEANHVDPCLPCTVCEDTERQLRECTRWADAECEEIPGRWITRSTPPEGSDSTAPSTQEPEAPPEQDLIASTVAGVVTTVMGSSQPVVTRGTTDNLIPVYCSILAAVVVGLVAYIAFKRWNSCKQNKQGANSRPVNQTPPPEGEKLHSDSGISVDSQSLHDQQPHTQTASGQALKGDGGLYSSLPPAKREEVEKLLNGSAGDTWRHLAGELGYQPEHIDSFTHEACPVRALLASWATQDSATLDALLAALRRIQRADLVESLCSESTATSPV
UniProt Q9NZQ7, residues 19-290: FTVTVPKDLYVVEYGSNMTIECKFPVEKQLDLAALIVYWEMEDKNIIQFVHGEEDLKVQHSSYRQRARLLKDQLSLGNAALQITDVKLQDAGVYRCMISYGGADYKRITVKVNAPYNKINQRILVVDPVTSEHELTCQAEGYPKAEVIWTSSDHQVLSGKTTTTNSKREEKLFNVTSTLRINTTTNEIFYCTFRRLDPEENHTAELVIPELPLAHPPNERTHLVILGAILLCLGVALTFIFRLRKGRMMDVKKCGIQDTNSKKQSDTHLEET
UniProt P42081, residues 24-329: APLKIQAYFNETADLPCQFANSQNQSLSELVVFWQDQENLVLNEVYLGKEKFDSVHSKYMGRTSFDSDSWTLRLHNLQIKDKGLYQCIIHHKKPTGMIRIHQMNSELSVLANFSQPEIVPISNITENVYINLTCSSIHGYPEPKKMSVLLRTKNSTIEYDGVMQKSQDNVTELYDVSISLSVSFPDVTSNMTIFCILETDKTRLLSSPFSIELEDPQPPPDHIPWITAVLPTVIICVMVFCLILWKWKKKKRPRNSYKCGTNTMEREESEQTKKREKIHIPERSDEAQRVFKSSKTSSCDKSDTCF
UniProt P10586, residues 30-1907: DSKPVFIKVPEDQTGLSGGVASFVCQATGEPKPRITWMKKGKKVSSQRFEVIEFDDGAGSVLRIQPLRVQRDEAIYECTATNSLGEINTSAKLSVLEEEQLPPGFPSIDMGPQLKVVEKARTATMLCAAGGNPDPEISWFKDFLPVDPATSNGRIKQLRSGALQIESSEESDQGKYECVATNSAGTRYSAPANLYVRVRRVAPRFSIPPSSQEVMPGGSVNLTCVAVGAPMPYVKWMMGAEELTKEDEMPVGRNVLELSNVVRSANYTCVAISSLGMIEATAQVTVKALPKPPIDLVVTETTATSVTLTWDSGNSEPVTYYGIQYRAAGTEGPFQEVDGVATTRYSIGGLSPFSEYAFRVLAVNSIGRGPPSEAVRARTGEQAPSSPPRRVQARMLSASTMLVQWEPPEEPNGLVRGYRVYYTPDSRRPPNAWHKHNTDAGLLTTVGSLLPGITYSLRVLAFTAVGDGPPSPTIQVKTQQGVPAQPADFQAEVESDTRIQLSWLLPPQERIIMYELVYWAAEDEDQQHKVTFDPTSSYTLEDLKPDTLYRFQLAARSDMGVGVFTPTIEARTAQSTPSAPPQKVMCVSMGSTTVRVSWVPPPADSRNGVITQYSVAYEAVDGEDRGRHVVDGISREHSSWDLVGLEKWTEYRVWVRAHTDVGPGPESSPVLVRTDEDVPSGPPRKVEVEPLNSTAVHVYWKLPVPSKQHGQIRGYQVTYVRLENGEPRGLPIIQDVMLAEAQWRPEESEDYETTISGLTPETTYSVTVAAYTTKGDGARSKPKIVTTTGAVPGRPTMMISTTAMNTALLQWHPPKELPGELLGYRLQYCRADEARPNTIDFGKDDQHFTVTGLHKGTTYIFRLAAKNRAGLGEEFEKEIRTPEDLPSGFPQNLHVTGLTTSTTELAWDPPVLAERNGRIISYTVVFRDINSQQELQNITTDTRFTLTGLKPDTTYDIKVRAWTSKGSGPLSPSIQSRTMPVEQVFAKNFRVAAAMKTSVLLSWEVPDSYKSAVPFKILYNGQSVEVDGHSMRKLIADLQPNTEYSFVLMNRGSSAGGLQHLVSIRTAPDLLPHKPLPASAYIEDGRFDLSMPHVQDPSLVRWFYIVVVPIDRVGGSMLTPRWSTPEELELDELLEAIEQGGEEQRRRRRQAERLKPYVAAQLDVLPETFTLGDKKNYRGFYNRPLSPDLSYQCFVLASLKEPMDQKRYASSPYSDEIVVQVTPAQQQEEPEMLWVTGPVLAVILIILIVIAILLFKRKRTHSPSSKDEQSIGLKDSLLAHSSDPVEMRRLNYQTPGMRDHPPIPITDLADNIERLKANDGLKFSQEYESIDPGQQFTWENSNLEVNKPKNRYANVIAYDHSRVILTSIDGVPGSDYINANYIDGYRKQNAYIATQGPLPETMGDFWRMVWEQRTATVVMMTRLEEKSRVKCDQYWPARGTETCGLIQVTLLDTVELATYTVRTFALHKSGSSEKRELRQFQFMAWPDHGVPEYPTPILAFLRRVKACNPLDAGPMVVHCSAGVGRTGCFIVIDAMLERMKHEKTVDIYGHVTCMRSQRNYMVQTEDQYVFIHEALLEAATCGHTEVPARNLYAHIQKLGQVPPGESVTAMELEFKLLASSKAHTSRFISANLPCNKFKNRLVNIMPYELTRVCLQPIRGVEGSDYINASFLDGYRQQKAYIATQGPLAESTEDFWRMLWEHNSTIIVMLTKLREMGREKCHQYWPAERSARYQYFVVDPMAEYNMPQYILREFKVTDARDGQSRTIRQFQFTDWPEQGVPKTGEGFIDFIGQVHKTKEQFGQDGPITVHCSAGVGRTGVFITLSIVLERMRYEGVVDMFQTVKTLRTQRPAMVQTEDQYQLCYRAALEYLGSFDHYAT
UniProt Q96PQ0, residues 51-1159: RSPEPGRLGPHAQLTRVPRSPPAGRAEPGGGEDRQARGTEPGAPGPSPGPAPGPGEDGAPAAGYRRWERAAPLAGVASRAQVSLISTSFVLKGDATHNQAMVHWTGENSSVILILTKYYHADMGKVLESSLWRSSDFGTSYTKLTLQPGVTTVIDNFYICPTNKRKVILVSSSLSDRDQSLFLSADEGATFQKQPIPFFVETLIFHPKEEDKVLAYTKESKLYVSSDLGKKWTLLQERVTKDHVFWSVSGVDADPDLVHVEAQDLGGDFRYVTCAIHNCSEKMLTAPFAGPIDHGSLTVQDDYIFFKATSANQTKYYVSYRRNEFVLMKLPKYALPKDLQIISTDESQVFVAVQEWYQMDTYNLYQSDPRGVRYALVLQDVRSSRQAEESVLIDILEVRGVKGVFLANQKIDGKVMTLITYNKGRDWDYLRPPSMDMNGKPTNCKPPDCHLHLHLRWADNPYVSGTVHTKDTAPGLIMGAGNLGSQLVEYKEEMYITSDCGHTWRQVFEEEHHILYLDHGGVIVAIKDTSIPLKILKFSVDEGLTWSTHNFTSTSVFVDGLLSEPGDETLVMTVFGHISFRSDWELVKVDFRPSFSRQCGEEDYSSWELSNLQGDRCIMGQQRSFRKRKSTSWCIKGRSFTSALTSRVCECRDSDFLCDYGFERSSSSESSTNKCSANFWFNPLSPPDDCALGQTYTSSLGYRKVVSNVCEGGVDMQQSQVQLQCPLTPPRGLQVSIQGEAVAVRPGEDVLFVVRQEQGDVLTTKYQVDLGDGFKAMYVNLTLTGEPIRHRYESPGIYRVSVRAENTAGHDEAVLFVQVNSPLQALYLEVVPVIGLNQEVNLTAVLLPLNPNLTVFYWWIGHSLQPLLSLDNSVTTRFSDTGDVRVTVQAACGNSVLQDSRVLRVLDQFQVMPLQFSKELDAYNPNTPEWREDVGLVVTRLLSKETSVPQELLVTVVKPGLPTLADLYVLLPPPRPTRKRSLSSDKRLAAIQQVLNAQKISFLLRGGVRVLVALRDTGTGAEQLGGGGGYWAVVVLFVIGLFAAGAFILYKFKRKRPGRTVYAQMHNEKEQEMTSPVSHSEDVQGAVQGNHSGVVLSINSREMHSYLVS

What was measured:
[1] = target: full-length human p75 neurotrophin receptor fused at the cytoplasmic C-terminus to GFP (human) (UniProt P08138); test: flow cytometry on cells; B7-1–Fc or B7-1N82E–Fc titrated against cells expressing CTLA-4, CD28 or p75NTR; only the binder purified
[2] = target: full-length human p75 neurotrophin receptor fused at the cytoplasmic C-terminus to GFP (human) (UniProt P08138); test: flow cytometry on cells; competition: B7-1–Fc on fluorescent protein A beads bound to HEK293 cells expressing p75NTR; CTLA-4–Fc, CD28-Fc or isotype control titrated in; only the binder purified
[3] = target: full-length human p75 neurotrophin receptor fused at the cytoplasmic C-terminus to GFP (human) (UniProt P08138); test: flow cytometry on cells; ligand competition: NGF against hB7-1 for binding to p75NTR; competition at micromolar NGF; only the binder purified
[4] = target: programmed death-ligand 1 (PD-L1), GFP-tagged library member (human) (UniProt Q9NZQ7); test: flow cytometry on cells; cell-cell conjugates: cells expressing the mCherry-tagged query mixed with cells individually expressing GFP-tagged members of the human Ig and TNFR superfamily library; double-positive events; PBS 0.2% BSA, pH 7.4
[5] = target: human B7-1-mCherry fusion protein (human) (UniProt P33681); test: as above
[6] = target: B7-2, GFP-tagged library member (human) (UniProt P42081); test: as above
[7] = target: protein tyrosine phosphatase receptor type F (PTPRF) (human) (UniProt P10586); test: as above
[8] = target: T1, ICOSL, GFP-tagged library member (human) (UniProt O75144); test: as above
T1 sequence: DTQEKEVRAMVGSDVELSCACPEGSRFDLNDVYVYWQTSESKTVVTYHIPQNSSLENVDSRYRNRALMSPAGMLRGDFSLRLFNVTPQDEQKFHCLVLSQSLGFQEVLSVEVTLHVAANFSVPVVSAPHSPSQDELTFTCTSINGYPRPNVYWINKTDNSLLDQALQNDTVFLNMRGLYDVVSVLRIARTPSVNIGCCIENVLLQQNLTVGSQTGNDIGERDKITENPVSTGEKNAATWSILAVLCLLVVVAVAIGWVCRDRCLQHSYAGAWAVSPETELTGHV

[9] = target: full-length human p75 neurotrophin receptor fused at the cytoplasmic C-terminus to GFP (human) (UniProt P08138); test: flow cytometry on cells; cell-cell conjugates: HEK293F cells expressing 92 B7-1–mCherry point mutants (IgV domain) against HEK293F cells expressing CTLA-4–GFP, CD28-GFP or p75NTR-GFP; percent of WT binding
[10] = target: human p75 neurotrophin receptor-GFP (human) (UniProt P08138); test: flow cytometry on cells; recombinant B7-1-Fc or B7-1N82E-Fc titrated (up to 1.2 uM) onto cells expressing CTLA-4, CD28 or p75NTR; detected with an anti-mouse 647 labelled antibody; EC50 calculated; only the binder purified
Sortilin-GFP = Sortilin-GFP (UniProt Q99523); test: flow cytometry on cells; cell-cell binding of individually transfected cells: B7-1-mCherry cells mixed with cells expressing a GFP-tagged receptor; double-positive events as % bound; PBS 0.2% BSA, pH 7.4
SORCS1-GFP = target: T2, SORCS1-GFP (UniProt Q8WY21); test: as above
T2 sequence: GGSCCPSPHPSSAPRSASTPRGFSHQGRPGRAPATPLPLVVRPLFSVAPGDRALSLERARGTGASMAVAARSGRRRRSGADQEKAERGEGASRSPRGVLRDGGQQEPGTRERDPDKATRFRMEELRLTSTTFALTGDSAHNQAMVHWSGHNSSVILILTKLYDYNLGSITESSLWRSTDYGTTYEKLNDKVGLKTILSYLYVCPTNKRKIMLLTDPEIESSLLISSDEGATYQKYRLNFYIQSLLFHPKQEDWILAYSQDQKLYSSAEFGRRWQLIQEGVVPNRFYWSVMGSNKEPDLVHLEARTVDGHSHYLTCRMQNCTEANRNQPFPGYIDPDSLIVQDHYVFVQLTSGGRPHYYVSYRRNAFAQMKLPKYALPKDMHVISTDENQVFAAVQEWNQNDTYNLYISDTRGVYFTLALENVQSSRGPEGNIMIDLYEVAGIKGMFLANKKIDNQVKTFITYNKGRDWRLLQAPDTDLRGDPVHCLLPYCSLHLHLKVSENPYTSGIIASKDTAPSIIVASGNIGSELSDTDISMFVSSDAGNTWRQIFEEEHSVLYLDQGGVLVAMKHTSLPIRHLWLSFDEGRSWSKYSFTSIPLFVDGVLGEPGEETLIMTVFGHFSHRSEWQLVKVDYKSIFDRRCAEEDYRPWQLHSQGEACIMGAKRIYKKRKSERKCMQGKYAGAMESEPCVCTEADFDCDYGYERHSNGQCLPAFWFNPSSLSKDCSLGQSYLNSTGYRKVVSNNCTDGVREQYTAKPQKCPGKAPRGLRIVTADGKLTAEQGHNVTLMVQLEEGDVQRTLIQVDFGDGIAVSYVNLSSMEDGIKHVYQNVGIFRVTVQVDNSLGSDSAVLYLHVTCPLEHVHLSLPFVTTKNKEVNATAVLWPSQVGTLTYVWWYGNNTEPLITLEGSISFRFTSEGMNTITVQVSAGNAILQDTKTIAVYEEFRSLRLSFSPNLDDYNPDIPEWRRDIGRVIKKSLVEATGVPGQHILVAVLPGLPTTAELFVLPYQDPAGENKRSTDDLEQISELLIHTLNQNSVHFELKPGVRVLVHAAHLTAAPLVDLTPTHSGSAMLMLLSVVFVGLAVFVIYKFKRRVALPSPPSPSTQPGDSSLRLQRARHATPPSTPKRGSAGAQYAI

[11] = target: human p75 neurotrophin receptor-GFP (human) (UniProt P08138); test: as above
SORCS3-GFP = target: T3, SORCS3-GFP (UniProt Q9UPU3); test: as above
T3 sequence: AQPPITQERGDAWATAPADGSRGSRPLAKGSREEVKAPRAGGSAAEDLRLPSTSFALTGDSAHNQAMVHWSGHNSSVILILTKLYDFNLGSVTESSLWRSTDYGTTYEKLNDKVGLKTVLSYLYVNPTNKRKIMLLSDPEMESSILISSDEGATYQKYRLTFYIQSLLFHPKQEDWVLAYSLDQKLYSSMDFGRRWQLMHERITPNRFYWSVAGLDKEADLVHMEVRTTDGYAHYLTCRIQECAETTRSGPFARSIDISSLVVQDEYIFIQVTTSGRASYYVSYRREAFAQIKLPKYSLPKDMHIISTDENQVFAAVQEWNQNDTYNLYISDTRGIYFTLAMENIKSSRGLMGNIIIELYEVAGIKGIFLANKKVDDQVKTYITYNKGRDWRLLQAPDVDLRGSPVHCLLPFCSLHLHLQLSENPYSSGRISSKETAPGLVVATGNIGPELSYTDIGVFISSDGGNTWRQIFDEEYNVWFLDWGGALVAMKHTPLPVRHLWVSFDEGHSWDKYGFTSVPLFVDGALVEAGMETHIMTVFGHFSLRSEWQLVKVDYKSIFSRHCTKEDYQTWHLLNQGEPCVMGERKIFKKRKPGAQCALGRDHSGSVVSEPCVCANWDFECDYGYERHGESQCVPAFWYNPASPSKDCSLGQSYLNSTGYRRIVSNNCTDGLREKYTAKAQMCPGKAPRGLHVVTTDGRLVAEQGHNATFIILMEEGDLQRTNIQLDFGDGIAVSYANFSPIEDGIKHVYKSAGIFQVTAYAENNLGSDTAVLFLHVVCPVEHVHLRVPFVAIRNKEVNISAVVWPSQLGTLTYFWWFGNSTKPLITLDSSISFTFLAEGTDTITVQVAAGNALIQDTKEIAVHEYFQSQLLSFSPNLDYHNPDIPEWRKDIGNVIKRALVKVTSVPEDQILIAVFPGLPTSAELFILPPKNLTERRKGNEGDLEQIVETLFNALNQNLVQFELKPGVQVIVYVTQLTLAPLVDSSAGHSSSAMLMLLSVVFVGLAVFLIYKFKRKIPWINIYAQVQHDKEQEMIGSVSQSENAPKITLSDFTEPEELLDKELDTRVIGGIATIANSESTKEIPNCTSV

SORCS2-GFP = SORCS2-GFP (UniProt Q96PQ0); test: as above
[12] = target: human p75 neurotrophin receptor-GFP (human) (UniProt P08138); test: flow cytometry on cells; high-throughput cell-cell screen: HEK293F query cells (C-terminal mCherry fusion) mixed 1:1 in 96-well format with cells each expressing one member of the Ig/TNFR superfamily library (C-terminal GFP); double-positive events as % bound; PBS 0.2% BSA, pH 7.4
[13] = target: human p75 neurotrophin receptor-GFP (human) (UniProt P08138); test: flow cytometry on cells; cell-cell binding of sorted stable HEK293 lines (B7-1-mCherry, B7-1N82E-mCherry, B7-2-mCherry) with GFP-tagged query cells; % cell bound
mCD28-GFP (mouse) = mCD28-GFP (mouse) (UniProt P31041); test: as above
mCTLA4-GFP (mouse) = mCTLA4-GFP (mouse) (UniProt P09793); test: as above
[14] = target: full-length human p75 neurotrophin receptor fused at the cytoplasmic C-terminus to GFP (human) (UniProt P08138); test: flow cytometry on cells; cell-cell conjugates: cells expressing the mCherry-tagged query mixed with cells individually expressing GFP-tagged members of the human Ig and TNFR superfamily library; double-positive events; PBS 0.2% BSA, pH 7.4
[15] = target: p75^NTR P150D-GFP (human) (UniProt P08138); test: flow cytometry on cells; cell-cell conjugates: cells expressing p75NTR-GFP point mutants against cells expressing PTPRF-mCherry
[16] = target: p75^NTR S137A-GFP (human) (UniProt P08138); test: as above
[17] = target: p75^NTR P150A-GFP (human) (UniProt P08138); test: as above
[18] = target: p75^NTR F136D-GFP (human) (UniProt P08138); test: as above
[19] = target: p75^NTR L165A-GFP (human) (UniProt P08138); test: as above
[20] = target: p75^NTR S137D-GFP (human) (UniProt P08138); test: as above

Measured: binding

B7-1–Fc (from UniProt P33681 35-233) (Fc fusion)
binds: [1] | [2] | [3]

full-length human p75 neurotrophin receptor fused at the cytoplasmic C-terminus to GFP (from UniProt P08138 29-427)
binds: [5] | [7]
no binding: [4] | [6] | [8]

hB7-1 I92D–mCherry (from UniProt P33681 35-288) (ligand)
binds: [9]

hB7-1N82E-mIgG2A (from UniProt P33681 35-233) (Fc fusion)
no binding (tested: 1.2 µM): [10]

human B7-1-mCherry fusion protein (from UniProt P33681 35-288) (ligand)
binds: [11] | [12] | [13] | mCD28-GFP (mouse) | mCTLA4-GFP (mouse)
no binding: Sortilin-GFP | SORCS1-GFP | SORCS3-GFP | SORCS2-GFP

protein tyrosine phosphatase receptor type F (PTPRF) (from UniProt P10586 30-1907)
binds: [14] | [15] | [16] | [17] | [18] | [19] | [20]
